Assay results as given in the supplement of paper PMC10369915.
The other results are listed elsewhere or left out. No stated cut-off is given here; in the data, active = 3.2 or more and inactive = the rest. Most of these values are background signal.

Legend:
Assay in all cases: enrichment score (SH2-bound / input frequency) (ratio); bacterial display of known human phosphotyrosine sites (pTyr-Var adds point mutants) read by sequencing; higher = stronger binding; tyrosines were phosphorylated by kinases first
Conditions in all cases: peptide library: pTyr-Var
[1] = molecular target: SHP2 C-SH2 domain E139D
[2] = molecular target: SHP2 C-SH2 domain wild-type
[3] = molecular target: SHP2 N-SH2 domain L43F
[4] = molecular target: SHP2 N-SH2 domain T42A
[5] = molecular target: SHP2 N-SH2 domain T52S
[6] = molecular target: SHP2 N-SH2 domain wild-type
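Further: displayed peptides selected on beads carrying the immobilized SH2 domain, with library peptides lacking any tyrosine serving as negative controls.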

FLRTGYSIPFG [TGM1_Y370_V372I_YF]
enrichment score [1]: inactive: 1.67 | enrichment score [2]: inactive: 1.91 | enrichment score [3]: inactive: 2.18 | enrichment score [4]: active: 4.2 | enrichment score [5]: inactive: 2.68 | enrichment score [6]: inactive: 1.56

FLRTGYSVPFG [TGM1_Y370_YF]
enrichment score [1]: inactive: 1.24 | enrichment score [2]: inactive: 1.31 | enrichment score [3]: inactive: 2.13 | enrichment score [4]: inactive: 2.71 | enrichment score [5]: inactive: 1.92 | enrichment score [6]: inactive: 1.17

FSDQVYRQHRK [TH_Y230_R233H]
enrichment score [1]: inactive: 0.655 | enrichment score [2]: inactive: 0.537 | enrichment score [3]: inactive: 0.373 | enrichment score [4]: inactive: 0.418 | enrichment score [5]: inactive: 0.7 | enrichment score [6]: inactive: 0.583

GEVKAYGAGLL [TH_Y419]
enrichment score [1]: inactive: 0.676 | enrichment score [2]: inactive: 0.602 | enrichment score [3]: inactive: 0.65 | enrichment score [4]: inactive: 0.535 | enrichment score [5]: inactive: 0.499 | enrichment score [6]: inactive: 0.797

CCKNRYDKDKP [THAP1_Y14_G9C]
enrichment score [1]: inactive: 0.862 | enrichment score [2]: inactive: 0.952 | enrichment score [3]: inactive: 0.946 | enrichment score [4]: inactive: 0.685 | enrichment score [5]: inactive: 1.4 | enrichment score [6]: inactive: 1.05

YRVAGYETQGG [TIA1_Y383]
enrichment score [1]: inactive: 0.762 | enrichment score [2]: inactive: 0.532 | enrichment score [3]: inactive: 0.382 | enrichment score [4]: inactive: 0.49 | enrichment score [5]: inactive: 0.51 | enrichment score [6]: inactive: 0.704

YQSKHYACIRQ [TIMP3_Y182]
enrichment score [1]: inactive: 1.84 | enrichment score [2]: inactive: 2.5 | enrichment score [3]: inactive: 1.69 | enrichment score [4]: inactive: 1.62 | enrichment score [5]: inactive: 1.51 | enrichment score [6]: inactive: 1.64

GYCSWYRGWAP [TIMP3_Y195]
enrichment score [1]: inactive: 0.802 | enrichment score [2]: inactive: 1.02 | enrichment score [3]: inactive: 0.813 | enrichment score [4]: inactive: 0.834 | enrichment score [5]: inactive: 0.906 | enrichment score [6]: inactive: 1.13

NKEPRYQEEPP [TJP2_Y479_D482E]
enrichment score [1]: inactive: 0.549 | enrichment score [2]: inactive: 0.477 | enrichment score [3]: inactive: 0.527 | enrichment score [4]: inactive: 0.591 | enrichment score [5]: inactive: 0.658 | enrichment score [6]: inactive: 0.686

VEDHDYEGGIG [TKT_Y564_Y563D]
enrichment score [1]: inactive: 0.609 | enrichment score [2]: inactive: 0.616 | enrichment score [3]: inactive: 0.579 | enrichment score [4]: inactive: 0.595 | enrichment score [5]: inactive: 0.614 | enrichment score [6]: inactive: 0.756

GSSKIYFLHPD [TLR5_Y108]
enrichment score [1]: inactive: 0.806 | enrichment score [2]: inactive: 0.789 | enrichment score [3]: inactive: 0.648 | enrichment score [4]: inactive: 0.9 | enrichment score [5]: inactive: 1.02 | enrichment score [6]: inactive: 0.657

GSSKIYFLHAD [TLR5_Y108_P112A]
enrichment score [1]: inactive: 1.08 | enrichment score [2]: inactive: 1.02 | enrichment score [3]: inactive: 0.98 | enrichment score [4]: inactive: 1.01 | enrichment score [5]: inactive: 1.02 | enrichment score [6]: inactive: 1.11

KQLFAYKMLMA [TMC2_Y209_YF]
enrichment score [1]: inactive: 2.21 | enrichment score [2]: inactive: 1.9 | enrichment score [3]: inactive: 1.98 | enrichment score [4]: inactive: 1.72 | enrichment score [5]: inactive: 2.03 | enrichment score [6]: inactive: 2.13

VSSPKYGGDDE [TMCC2_Y473_S475G]
enrichment score [1]: inactive: 0.456 | enrichment score [2]: inactive: 0.499 | enrichment score [3]: inactive: 0.536 | enrichment score [4]: inactive: 0.342 | enrichment score [5]: inactive: 0.44 | enrichment score [6]: inactive: 0.469

ETKKQYDSFTY [TMED3_Y85]
enrichment score [1]: inactive: 0.552 | enrichment score [2]: inactive: 0.489 | enrichment score [3]: inactive: 0.451 | enrichment score [4]: inactive: 0.503 | enrichment score [5]: inactive: 0.433 | enrichment score [6]: inactive: 0.417

ETKKQYNSFTY [TMED3_Y85_D86N]
enrichment score [1]: inactive: 0.78 | enrichment score [2]: inactive: 0.593 | enrichment score [3]: inactive: 0.592 | enrichment score [4]: inactive: 0.585 | enrichment score [5]: inactive: 0.591 | enrichment score [6]: inactive: 0.696

QNTGHYSSDNT [TMEFF2_Y361]
enrichment score [1]: inactive: 0.494 | enrichment score [2]: inactive: 0.419 | enrichment score [3]: inactive: 0.487 | enrichment score [4]: inactive: 0.536 | enrichment score [5]: inactive: 0.454 | enrichment score [6]: inactive: 0.751

KGFCGYSFDDI [TMEM230_Y110_R108C_YF]
enrichment score [1]: inactive: 0.811 | enrichment score [2]: inactive: 0.889 | enrichment score [3]: inactive: 0.783 | enrichment score [4]: inactive: 0.734 | enrichment score [5]: inactive: 0.663 | enrichment score [6]: inactive: 1.07

YRGYSYDDIPD [TMEM230_Y112]
enrichment score [1]: inactive: 1.06 | enrichment score [2]: inactive: 0.853 | enrichment score [3]: inactive: 0.854 | enrichment score [4]: inactive: 0.871 | enrichment score [5]: inactive: 0.823 | enrichment score [6]: inactive: 0.785

YCGYSYDDIPD [TMEM230_Y112_R108C]
enrichment score [1]: inactive: 1.06 | enrichment score [2]: inactive: 1.26 | enrichment score [3]: inactive: 0.925 | enrichment score [4]: inactive: 0.988 | enrichment score [5]: inactive: 0.949 | enrichment score [6]: inactive: 0.936

SENPKCPEVGD [TMEM43_Y233_Y233C]
enrichment score [1]: inactive: 0.522 | enrichment score [2]: inactive: 0.508 | enrichment score [3]: inactive: 0.627 | enrichment score [4]: inactive: 0.531 | enrichment score [5]: inactive: 0.478 | enrichment score [6]: inactive: 0.508

YSNVLYRPRGA [TMIGD2_Y197]
enrichment score [1]: inactive: 0.308 | enrichment score [2]: inactive: 0.233 | enrichment score [3]: inactive: 0.354 | enrichment score [4]: inactive: 0.35 | enrichment score [5]: inactive: 0.216 | enrichment score [6]: inactive: 0.267

IPGVEYLVSII [TNC_Y1775]
enrichment score [1]: inactive: 1.2 | enrichment score [2]: inactive: 1.09 | enrichment score [3]: inactive: 1.14 | enrichment score [4]: inactive: 1.33 | enrichment score [5]: inactive: 1.19 | enrichment score [6]: inactive: 1.28

TFGQVYKGPHV [TNIK_Y40_R43P_YF]
enrichment score [1]: inactive: 0.567 | enrichment score [2]: inactive: 0.538 | enrichment score [3]: inactive: 0.449 | enrichment score [4]: inactive: 0.582 | enrichment score [5]: inactive: 0.762 | enrichment score [6]: inactive: 0.417

SNYRAYATEPH [TNNI3_Y29]
enrichment score [1]: inactive: 0.472 | enrichment score [2]: inactive: 0.428 | enrichment score [3]: inactive: 0.391 | enrichment score [4]: inactive: 0.366 | enrichment score [5]: inactive: 0.445 | enrichment score [6]: inactive: 0.584

SNYRAYATEPQ [TNNI3_Y29_H34Q]
enrichment score [1]: inactive: 0.451 | enrichment score [2]: inactive: 0.541 | enrichment score [3]: inactive: 0.431 | enrichment score [4]: inactive: 0.449 | enrichment score [5]: inactive: 0.432 | enrichment score [6]: inactive: 0.537

LWQSIYNLDAE [TNNT2_Y251_E254D]
enrichment score [1]: inactive: 1 | enrichment score [2]: inactive: 1.62 | enrichment score [3]: inactive: 1.02 | enrichment score [4]: inactive: 1.33 | enrichment score [5]: inactive: 1.11 | enrichment score [6]: inactive: 1.41

PPGRSYSPYDY [TNS1_Y793]
enrichment score [1]: inactive: 0.417 | enrichment score [2]: inactive: 0.676 | enrichment score [3]: inactive: 0.64 | enrichment score [4]: inactive: 0.678 | enrichment score [5]: inactive: 0.4 | enrichment score [6]: inactive: 0.52

RSFSPYDFQPC [TNS1_Y796_YF]
enrichment score [1]: inactive: 0.674 | enrichment score [2]: inactive: 0.759 | enrichment score [3]: inactive: 0.563 | enrichment score [4]: inactive: 0.682 | enrichment score [5]: inactive: 0.643 | enrichment score [6]: inactive: 0.532

TGDFGYRTPGY [TNS2_Y668_A670T]
enrichment score [1]: inactive: 0.659 | enrichment score [2]: inactive: 0.567 | enrichment score [3]: inactive: 0.49 | enrichment score [4]: inactive: 0.476 | enrichment score [5]: inactive: 0.556 | enrichment score [6]: inactive: 0.511

VVAHQYSFAPD [TNS3_Y601]
enrichment score [1]: inactive: 0.895 | enrichment score [2]: inactive: 0.705 | enrichment score [3]: inactive: 2.32 | enrichment score [4]: inactive: 0.783 | enrichment score [5]: inactive: 2.42 | enrichment score [6]: inactive: 0.866

VVAHHYSFAPD [TNS3_Y601_Q600H]
enrichment score [1]: inactive: 1.25 | enrichment score [2]: inactive: 1.55 | enrichment score [3]: inactive: 1.52 | enrichment score [4]: inactive: 1.09 | enrichment score [5]: inactive: 1.55 | enrichment score [6]: inactive: 1.3

TSKLNYLDPRI [TOP1_Y723]
enrichment score [1]: inactive: 0.819 | enrichment score [2]: inactive: 0.938 | enrichment score [3]: active: 3.71 | enrichment score [4]: inactive: 2.85 | enrichment score [5]: active: 4.15 | enrichment score [6]: inactive: 1.6

SVTCTYSPVLN [TP53_Y126_A129V]
enrichment score [1]: inactive: 0.908 | enrichment score [2]: inactive: 1.78 | enrichment score [3]: inactive: 1.4 | enrichment score [4]: inactive: 1.03 | enrichment score [5]: inactive: 0.816 | enrichment score [6]: inactive: 1.62

SVTRTYSPALN [TP53_Y126_C124R]
enrichment score [1]: inactive: 0.573 | enrichment score [2]: inactive: 0.811 | enrichment score [3]: inactive: 0.705 | enrichment score [4]: inactive: 0.484 | enrichment score [5]: inactive: 0.661 | enrichment score [6]: inactive: 0.746

SVTWTYSPALN [TP53_Y126_C124W]
enrichment score [1]: inactive: 0.662 | enrichment score [2]: inactive: 0.7 | enrichment score [3]: inactive: 0.673 | enrichment score [4]: inactive: 0.745 | enrichment score [5]: inactive: 0.612 | enrichment score [6]: inactive: 0.826

SVTCTYSPAHN [TP53_Y126_L130H]
enrichment score [1]: inactive: 0.977 | enrichment score [2]: inactive: 1.22 | enrichment score [3]: inactive: 0.959 | enrichment score [4]: inactive: 0.734 | enrichment score [5]: inactive: 0.651 | enrichment score [6]: inactive: 1.51
